Experimental data published in PubChem BioAssay AID1508624 (National Center for Advancing Translational Sciences (NCATS), 2021).
Among all 48,000 compounds or so, about 120 (0.25%) were called active. Not shown: some 4% with an inconclusive outcome. Calls come from the whole dose curve; as a rule, active = well fitted activation curve with a large enough effect; inconclusive = small, poorly fitted or top-dose-only effect, or another doubt; inactive = no such curve, though single readings can be large or run the other way. The list shows a part of the results.

Assay: Primary qHTS for Identification of Small Molecule Activators of Huntingtin-Antisense Promoter Activity; note: nearly all actives have a fitted effect of over 55% in size
Settings: HEK293 HTT-AS promoter firefly luciferase reporter, 24 h; series mostly up to 57.5 µM; activity change, positive = activation: at the top concentration
Summary of the method: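 HEK293 cells carrying firefly luciferase reporters were seeded at 2,500 per well in Opti-MEM and cultured for 24 h. They were then treated with compounds at up to 57.5 uM final for 24 h at 37 degrees C before Dual-Glo luminescence readout.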

Activity change, positive = activation, inactive:
Cc1ccc(C)c(N2CCN(S(=O)(=O)c3ccc(F)c(C(=O)Nc4ccc(Cl)cc4Cl)c3)CC2)c1 -12.4%, CCN(Cc1ccccc1)C(=O)CCS(=O)(=O)c1cc(Br)cc2c1N(C(=O)C1CC1)CC2 -15.3%, CN(c1ccccc1)S(=O)(=O)c1nnc(NC(=O)c2cccs2)s1 -9.13%, CCOC(=O)c1c(C)oc2ccc(N(C(=O)c3ccncc3)S(=O)(=O)c3ccc(F)cc3)cc12 -34.3%, CC(=O)Nc1ccc(NC(=O)CN2C(=O)CCc3cc(S(=O)(=O)N4CCCCC4)ccc32)cc1 -8.12%, O=C(Cn1cc(SCc2ccc(Cl)cc2)c2ccccc21)N1CCCC1 -6.12%, O=C(Nc1ccc(F)cc1)Nc1nnc(SCC(=O)N2CCCCC2)s1 -12.1%, CC(C(=O)O)c1ccc(-c2ccccc2)c(F)c1 (stereo unspecified) -37.3%, Cc1cccc(CNC(=O)CN2CC(C)Sc3ccccc32)c1 (stereo unspecified) 8.53%, COc1ccc(C)cc1NS(=O)(=O)c1cc(Br)cc2c1N(C(C)=O)C(C)C2 (stereo unspecified) -34%, Cc1c(C(=O)N(Cc2cccc(Cl)c2)Cc2ccco2)oc2ccccc12 -17.8%, Cc1cc(O)c2c(c1)C(=O)c1cccc(O)c1C2=O -6.54%, COc1cccc(CNC(=O)CSc2nnc(C)c3c(C)n(-c4ccccc4)nc23)c1 -32.4%, NC(=O)c1cn(Cc2c(F)cccc2F)nn1 -1.26%, Cc1ccccc1Nc1c(-c2ccc(O)cc2)nc2c(C)cccn12 -5.24%, COc1ccc(NC(=O)CCS(=O)(=O)c2cc3c4c(c2)CCN4C(=O)CC3)cc1OC -14.1%, CCC(C(=O)Nc1ccc(F)cc1F)n1nc(-c2ccccc2)c2c(c1=O)CCCC2 (stereo unspecified) -26.2%, COc1cc2c(N3CCN(C(=O)Nc4ccc(OC(C)C)cc4)CC3)ncnc2cc1OCCCN1CCCCC1, COc1ccc(NC(=O)c2ccco2)cc1NC(=O)COc1cc(C)ccc1C(C)C -34.6%, Cc1nc(N)c(S(=O)(=O)c2ccccc2)c(Nc2ccc(Br)cc2)n1 -6.91%, COc1ccc(Cl)cc1S(=O)(=O)N1CCC(c2ccncc2)CC1 -29.8%, COc1cccc(/C=C/c2nc3ccccc3c(=O)n2-c2ccc(C)c(C)c2)c1OC -13%, CC(=O)N1c2ccccc2CC1C(=O)N1CCN(c2cc(Cl)ccc2C)CC1 (stereo unspecified) -15.1%, O=C(c1cccn1-c1nnc(N2CCCC2)s1)N1CCN(c2ccc(F)cc2)CC1 -13.9%, Cc1cccc(OCC(=O)NCc2ccc3c(c2)CCN3C(=O)c2ccc(Cl)cc2)c1 1.59%, O=C(c1ccc(F)cc1)N1CCN(CCc2ccncc2)CC1 -7.02%, COc1ccc(-c2nnc(SCC(=O)Nc3ccc(C)c(Cl)c3)nc2-c2ccc(OC)c(OC)c2)cc1OC -19.4%, CCOc1ccc(NC(=O)c2c(NC(=O)c3ccncc3)sc3c2CCC(C(C)(C)C)C3)cc1 (stereo unspecified) 11% [at 11.5 µM, percent change from vehicle, -100% = no light], CCCCN(C)CCNC(=O)c1cc(-c2ccc(Cl)s2)nc2ccccc12 -22.7%, CCc1ccc(NC(=O)CN2C(=O)CC(c3ccccc3)Sc3ccccc32)cc1 (stereo unspecified) -31.4%, CC(C)(C)OC(=O)N1CCC(c2c(C(=O)NCCN3CCOCC3)cnn2-c2ccc(F)cc2F)CC1 -5.79%, COc1ccc(-c2cccc(NS(=O)(=O)c3ccc(NC(C)=O)cc3)c2)nn1 -27.8%, CCOc1ccccc1Nc1nc2c(S(=O)(=O)c3ccc(C)cc3)nnn2c2ccsc12 -7.01%, Cc1ccc(-c2nc3scc(CCNS(=O)(=O)c4ccc(Oc5ccccc5)cc4)n3n2)cc1 -84%, CCOC(=O)c1c(-c2ccccc2)csc1NC(=O)c1nc(SCC)ncc1Cl 18.3%, CCc1cccc(C)c1NC(=O)CN1C(=O)c2cccc3cccc1c23 -10.8%, CCCCCNC(=O)C1CCC(Cn2c(=O)c3sccc3n(CC)c2=O)CC1 (stereo unspecified) -22%, CCOc1cc(/C=C(\C#N)C(=O)Nc2ccc(OC)cc2)ccc1OCc1cc(=O)n2nc(CC)sc2n1 -2.13%, Cc1ccc2nc(CSc3nnc(NC(=O)c4ccc(C(C)(C)C)cc4)s3)cc(=O)n2c1 -2.66%, O=C(CSCc1ccc(F)cc1)NCc1ccc(F)cc1 5.73%, Cc1cccc(CC(=O)N2CC(=O)Nc3ccc(F)cc3C2c2ccccc2)c1 (stereo unspecified) -9.1%, Cc1ccc(CNC(=O)CSc2c(C(C)C)cnc3c2c(=O)n(C)c(=O)n3C)cc1 -19.7%, COc1cc(NC(=O)CCCc2nnc3n(C)c(=O)c4sccc4n23)cc(OC)c1OC -2.71%, CCc1ccccc1NC(=O)Nc1ccc2snnc2c1 -19.8%, CCC(CC)C(=O)N1CCc2cc(OC)c(OC)cc2C1COc1ccc(F)cc1 (stereo unspecified) -28.5%, Cc1cccc(-n2ncc(C(=O)NCc3ccc4c(c3)OCO4)c2C2CCN(C(=O)OC(C)(C)C)CC2)c1 -29.1%, O=C(CSc1nc(Nc2ccc(F)c(F)c2)c2ccccc2n1)c1ccc(Cl)cc1 -22%, CC1=C(C(=O)Nc2ccccc2)C(c2ccc(O)cc2)n2nc(-c3ccc(Cl)cc3)nc2N1 (stereo unspecified) -38%, CN1CCN(C2=Nc3cc(F)ccc3Cc3ccccc32)CC1 -17.7%, Cc1ccc(S(=O)(=O)NCCSc2nnnn2-c2ccccc2)cc1 -18.2%, COc1ccc2c(c1)NC(c1ccc(Cl)cc1)=NC(c1cccs1)=N2 -5.03%, CCn1c(CN2CCCCC2)nc2cc(NC(=O)COc3ccc(C(C)(C)C)cc3)ccc21 -31.5%, CC(C)(C)c1ccc(-c2nnc(-c3ccccc3NC(=O)c3cccc(C(F)(F)F)c3)o2)cc1 -1.02%, CCCN1C(=O)C(Cc2nc3ccccc3c(=O)n2CC)c2cc(Br)ccc21 (stereo unspecified) -27.9%, Cc1ccc(C)c(Cn2c(=O)n(Cc3ccccc3)c(=O)c3sc4ccccc4c32)c1 -11.4%, Cc1ccc(CN2C(=O)C3(c4ccccc42)N(c2ccc(C)c(Cl)c2)C(=O)CS3(=O)=O)cc1 (stereo unspecified) -37.7%, COc1ccc(NC(=O)CSc2cn(CCNC(=O)c3ccc(OC)cc3)c3ccccc23)cc1 -49.7%, Cc1cccc(C)c1NC(=O)c1ccc(N)cc1 -6.95%, COc1cccc(/C=C(\C#N)C(=O)Nc2ccc(NC(C)=O)cc2)c1OC -10.9%, Cc1oc(-c2cccc(Br)c2)nc1Cn1c(SCc2cccc(F)c2)nc2cccnc21 -18.2%, CCCCC(O)/C=C(C)/C=C/C=C/C(=O)N1CCCC1=O (stereo unspecified) 3.42%
